According to PubChem BioAssay AID504339 (National Center for Advancing Translational Sciences (NCATS), 2011):
Hit rate of the full screen: of about 390,000 compounds, about 17,000 (4.4%) were called active. This list was built around the results that the source calls inconclusive (neither active nor inactive); the mix of calls is not that of the screen. Calls follow the shape of the dose curve; as a rule, active = well fitted inhibition curve with a large enough effect; inconclusive = small, poorly fitted or top-dose-only effect; inactive = no such curve, though single readings can be large or run the other way. Potencies of inconclusive entries are doubtful fits and often do not repeat.

Target: Lysine-specific demethylase 4A (Homo sapiens) (UniProt O75164)
Assay: qHTS Assay for Inhibitors of JMJD2A-Tudor Domain; also: nearly all actives have a fitted effect of over 50% in size
Conditions: AlphaScreen JMJD2A-Tudor / H3K4me3 peptide binding; activity change, negative = inhibition: at 114 µM (top of the series)
% is scaled to controls: 0 for no effect and ±100 for the full control effect; potency is read from the fitted curve at half-maximal effect; tags tell the direction and shape of the fitted curve.

Sequence of UniProt O75164 (O75164 whole entry, looked up, the tested form may be a part): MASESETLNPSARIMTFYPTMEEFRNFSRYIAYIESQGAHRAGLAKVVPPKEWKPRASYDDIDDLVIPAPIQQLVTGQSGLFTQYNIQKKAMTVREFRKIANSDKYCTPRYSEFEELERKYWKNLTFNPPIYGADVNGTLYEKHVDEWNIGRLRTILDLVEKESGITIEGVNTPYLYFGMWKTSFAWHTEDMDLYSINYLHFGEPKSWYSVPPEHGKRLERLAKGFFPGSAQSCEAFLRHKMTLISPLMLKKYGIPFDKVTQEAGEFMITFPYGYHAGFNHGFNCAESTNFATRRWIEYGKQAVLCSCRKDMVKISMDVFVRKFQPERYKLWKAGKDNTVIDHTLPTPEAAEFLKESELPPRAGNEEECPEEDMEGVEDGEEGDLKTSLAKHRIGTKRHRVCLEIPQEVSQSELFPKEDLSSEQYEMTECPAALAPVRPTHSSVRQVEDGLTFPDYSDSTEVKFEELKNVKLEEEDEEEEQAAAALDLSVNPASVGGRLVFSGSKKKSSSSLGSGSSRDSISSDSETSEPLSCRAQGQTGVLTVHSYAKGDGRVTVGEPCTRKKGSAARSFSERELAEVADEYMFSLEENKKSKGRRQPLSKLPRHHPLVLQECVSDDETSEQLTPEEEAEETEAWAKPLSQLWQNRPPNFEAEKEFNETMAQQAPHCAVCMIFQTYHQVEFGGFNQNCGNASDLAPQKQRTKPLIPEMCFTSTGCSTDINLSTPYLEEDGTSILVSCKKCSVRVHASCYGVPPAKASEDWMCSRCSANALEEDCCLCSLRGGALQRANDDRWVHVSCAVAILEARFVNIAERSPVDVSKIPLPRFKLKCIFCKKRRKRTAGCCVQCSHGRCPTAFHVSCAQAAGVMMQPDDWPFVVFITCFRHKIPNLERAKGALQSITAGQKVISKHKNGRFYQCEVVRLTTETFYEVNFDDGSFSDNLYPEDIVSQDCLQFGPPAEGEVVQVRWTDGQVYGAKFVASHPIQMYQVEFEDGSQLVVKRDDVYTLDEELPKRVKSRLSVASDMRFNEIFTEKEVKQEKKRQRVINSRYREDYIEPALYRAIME

Row | Structure (SMILES) | Potency | activity change, negative = inhibition
1 | COc1ccc(NC(=O)C2=CC(c3ccc(OC)c(OC)c3)=NS(=O)(=O)N2C)cc1 | inconclusive: 11.2 µM [inhibitor, full curve, poor fit] | 
2 | Cc1cc(NC(=O)CN2CCCC(C)C2)no1 (centres undefined) | active: 2.82 µM | 
3 | CCC1(c2cccc(Cl)c2)NC(=O)N(Cc2cc(C(=O)OC)c(C)o2)C1=O (centres undefined) | inconclusive: 100 µM [inhibitor, single point] | 
4 | CCOC(=O)C1(Cc2cccc(OC)c2)CCCN(C(=O)CSC)C1 (centres undefined) |  | inactive: -17.1%
5 | CCCCCCSc1ccc([C@H]2N[C@@](CC(C)C)(C(=O)OC)[C@H]3C(=O)N(C)C(=O)[C@@H]23)cc1 | inconclusive: 39.8 µM [inhibitor, partial curve, poor fit] | 
6 | N=c1c2c(ncn1-c1ccccc1)Oc1ccc3ccccc3c1C2c1ccc2c(c1)CCO2 (centres undefined) | active: 35.5 µM | 
7 | CCc1ccc(CNc2ccc3c(c2)ncn3C)cc1 | inconclusive: 35.5 µM [inhibitor, partial curve] | 
8 | Nc1c(C(=O)NC2CCCC2)c2nc3ccccc3nc2n1/N=C/c1ccco1 |  | inactive: -6.01%
9 | COc1ccc(N=Nc2ccc3ccccc3c2)c(O)c1 | active: 10 µM | 
10 | Cc1ccc(NS(=O)(=O)c2cccc(C(=O)NNC(=O)c3cccn3C)c2)c(C)c1 | inconclusive: 50.1 µM [inhibitor, partial curve] | 
11 | Cc1ccc(NC(=O)CCNCc2ccco2)cc1S(=O)(=O)N(C)C | active: 1.78 µM | 
12 | Cc1ccc(S(=O)(=O)NCCC(c2ccccc2)c2ccccc2)cc1C(=O)O | active: 79.4 µM | 
13 | CCOc1ccc(CN(C)CC(=O)Nc2cccc3ccccc23)cc1OC | active: 0.794 µM | 
14 | Cc1ccc2nc3c(c(Nc4ccc5c(c4)OCCO5)c2c1)CCC3 | inconclusive: 44.7 µM [inhibitor, partial curve] | 
15 | Cn1c(=O)c2[nH]c(C(O)c3ccc(Cl)cc3)nc2n(C)c1=O (centres undefined) | inconclusive: 15.8 µM [inhibitor, partial curve, poor fit] | 
16 | O=S(=O)([O-])CCC[n+]1c(SCCCS(=O)(=O)O)sc2ccc(Cl)cc21 | active: 79.4 µM | 
17 | CCCCC(=NCCc1c(C)[nH]c2ccc(OC)cc12)C1=C(O)CC(c2ccccc2)CC1=O (centres undefined) | inconclusive: 14.1 µM [inhibitor, full curve] | 
18 | C#CCOCCOCCOCCNc1nc(N2CCOCC2)nc(N2CCN(C(=O)[C@H](Cc3ccc(O)cc3)n3cc([C@@H](N)C(C)CC)nn3)CC2)n1 (some centres undefined) | inconclusive: 50.1 µM [inhibitor, partial curve] | 
19 | COc1ccc(-c2ccnc3nc(N4CCN(c5ccccc5)CC4)nn23)cc1 | inconclusive: 25.1 µM [inhibitor, full curve] | 
20 | O=C(Nc1cccc(-c2nc3ncccc3o2)c1)c1ccc2c(c1)OCO2 | inconclusive: 14.1 µM [inhibitor, partial curve, poor fit] | 
21 | CCOC(=O)c1ccc(NC(=O)c2c(NCc3sccc3C)sc3c2CCCCC3)cc1 | active: 56.2 µM | 
22 | COc1cc(/C=c2\sc3n(c2=O)C(c2ccccc2)C(c2ccccc2)=NN=3)ccc1O (centres undefined) | inconclusive: 56.2 µM [inhibitor, partial curve] | 

Row | Structure (SMILES) | Potency | activity change, negative = inhibition
23 | Cc1ccc(NS(=O)(=O)c2cc([N+](=O)[O-])ccc2NNC(=S)Nc2cccc(Cl)c2)c(C)c1 | inconclusive: 28.2 µM [inhibitor, single point] | 
24 | CC(=O)N1CC=CC1(CC(C)C)C(=O)NCCc1c[nH]c2ccccc12 (centres undefined) | inconclusive: 100 µM [inhibitor, single point] | 
25 | COC(=O)c1ccc(Cn2nc(C)cc2C)cc1 | inconclusive: 50.1 µM [inhibitor, partial curve] | 
26 | COc1cccc(C=NNC(=O)C2CC2)c1 | inconclusive: 89.1 µM [inhibitor, single point] | 
27 | COc1cc(/C=C/c2ccc3cccc([N+](=O)[O-])c3n2)ccc1OCC#N | inconclusive: 12.6 µM [inhibitor, partial curve] | 
28 | CCOC(=O)C(=CNNc1ccccc1)C(=O)OCC | active: 79.4 µM | 
29 | CO/N=C/c1c(C(=O)OC)nn(-c2ccccc2)c1Cl | inconclusive: 11.2 µM [inhibitor, partial curve, poor fit] | 
30 | O=[S+]([O-])(NC[C@H]1CCC[C@H](CN[S+](=O)([O-])c2c(F)cccc2F)C1)c1ccc2c(c1)OCCO2 |  | inactive: -13.7%
31 | O=C(CN1C(=O)C2CCCCC2C1=O)Nc1nc(-c2ccccn2)cs1 (centres undefined) | active: 79.4 µM | 
32 | O=C(Nc1nc2c(F)cc(F)cc2s1)c1ccco1 |  | inactive: -15.3%
33 | O=C(Nc1cccc(O)c1)c1cc(S(=O)(=O)N2CCCC2)ccc1Cl |  | inactive: 0%
34 | O=c1nc2scc(-c3ccccc3)n2c2ccccc12 | inconclusive: 100 µM [inhibitor, single point] | 
35 | Cc1ccc(N=Cc2cc3c(cc2O)OC(N)=C(C#N)C3c2ccccc2)cc1 (centres undefined) | inconclusive: 100 µM [inhibitor, single point] | 
36 | Cc1ccc(CN(C(=O)COc2ccc(C(C)C)cc2)C2CCS(=O)(=O)C2)o1 (centres undefined) | inconclusive: 56.2 µM [inhibitor, partial curve] | 
37 | COc1ccc(N2CCN(C(=O)CCNS(=O)(=O)c3ccccc3)CC2)cc1 | inconclusive: 3.55 µM [inhibitor, single point] | 
38 | Cc1nc2ccccc2c(=O)n1/N=C/c1ccc(O)c(O)c1O | active: 14.1 µM | 
39 | Cc1ccccc1C(=O)NNC1=NCCC1 | active: 1.58 µM | 
40 | O=[N+]([O-])c1cccc(-c2ccc(C(=S)N3CCN(c4ccc(F)cc4)CC3)o2)c1 | inconclusive: 17.8 µM [inhibitor, partial curve] | 
41 | Cc1cccc(N2CCN(c3nc(C)cc(C)c3C#N)CC2C)c1 (centres undefined) |  | inactive: -21.9%
42 | COc1ccc(S(=O)(=O)N2CCCCCC2)cc1C(=O)N(C)Cc1ccc(C(C)(C)C)cc1 | inconclusive: 15.8 µM [inhibitor, single point] | 
43 | COc1ccc(C2CC(c3ccccc3)Oc3cc(OC)ccc32)cc1 (centres undefined) | active: 39.8 µM | 
44 | Cc1ccc(NC(=O)c2sc(=S)n(-c3cc(C)ccc3F)c2N)cc1 | inconclusive: 56.2 µM [inhibitor, partial curve, poor fit] | 
